# Data reported in the supplement of paper PMC12889115.
# Some of the results follow. Cut-off read from the data, not from the text of the source: active = 25% or less and inactive = the rest. Repeats are few or missing, and single values can be far off.
# System: Salmonella enterica serovar Typhimurium SL1344
# Assay: intramacrophage bacterial GFP load (SAFIRE), percent of DMSO control (% of DMSO); higher = more intracellular bacteria (less inhibition)
# Conditions: 25 µM; system: infected RAW 264.7 macrophages
# Description: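 Secondary screen of the 553 primary hits at 25 µM. (i) S. Typhimurium SL1344 grown in Mueller-Hinton broth with 0.5 µg/mL polymyxin B, OD600 read after 18 h. (ii) SAFIRE assay: RAW 264.7 macrophages infected with S. Typhimurium sifB::gfp (MOI 30); compound added 2 h post-infection; cells fixed at 18 h; GFP-positive pixel fraction per macrophage imaged by confocal microscopy and expressed as % of DMSO control.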
# 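Note: compounds tested were the hits of an earlier 50 µM broth growth screen of a drug-like diversity library run with polymyxin B.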
row,Compound,intramacrophage bacterial GFP load
1,CCC(=O)N(Cc1cc2c(OC)ccc(OC)c2nc1N1CCOCC1)CC1COc2ccccc2O1 (stereo not given),inactive: 74.9
2,CCOC(=O)C1(CCCc2ccccc2)CCN(C(=O)C2CC=CCC2)CC1 (stereo not given),inactive: 72.1
3,Cc1nc(N2CCCCCCC2)ncc1C(C)NCc1ccccc1 (stereo not given),active: 1.98
4,C=CCO[C@H]1[C@H](NC(=O)CSC)c2ccccc2C12CCN(Cc1cc(CC(C)C)[nH]n1)CC2,active: 7.6
5,COc1ccc(OC)c(S(=O)(=O)N(Cc2ccncc2)Cc2cccc(OCCCc3ccncc3)c2)c1,inactive: 63.3
6,COc1ccc(CCNC(=O)c2oc3ccc(C)cc3c2C)cc1OC,inactive: 138
7,COc1cccc(CN2CCc3nnc(C(CC(C)C)NC(=O)c4cc(C)cc(C)c4)n3CC2)c1O (stereo not given),active: 22.4
8,COc1cc(CN2Cc3cc(Cl)ccc3OC(C)C2)cc2c1OCO2 (stereo not given),inactive: 44
9,O=C(NCCC1=CCCCC1)c1coc(COc2ccccc2)n1,inactive: 123
10,Cc1c(C(=O)NCC2COc3ccccc3O2)cnn1-c1ncc2c(n1)-c1ccccc1CCC2 (stereo not given),inactive: 129
11,COCCN1C(=O)CC(CC(=O)N2CCCC(COc3ccccc3C)C2)(c2ccccc2F)C1=O (stereo not given),inactive: 149
12,CCC1CN(Cc2sccc2C)Cc2cc(OC)ccc2O1 (stereo not given),inactive: 53.2
13,Cc1cc(C)n(Cc2ccc(C(=O)N(Cc3ccncc3)Cc3cccc(OCCc4ccc(F)cc4)c3)cc2)n1,active: 0.236
14,CCCc1ccc2oc(C(=O)N3CCC(OCc4ccccn4)CC3)c(C)c2c1,inactive: 48.6
15,CCS(=O)(=O)c1ncc(CN2CCCC(C)C2)n1CCCc1ccccc1 (stereo not given),inactive: 27.1
16,O=C(CC1(c2ccccc2Cl)CC(=O)N(C2CCCC2)C1=O)N1CCCCCC1 (stereo not given),inactive: 60.7
17,COc1cccc(OCC2CCCN(C(=O)CCC3(Cc4ccccc4)CCC(=O)N3)C2)c1 (stereo not given),inactive: 72.8
18,Cc1cccc(S(=O)(=O)N2CCCC(CO)(Cc3cccc(Cl)c3)C2)c1 (stereo not given),inactive: 41.6
19,CCCCn1c(CN2CCC(C(O)CC)CC2)cnc1S(=O)(=O)CCCC(C)C (stereo not given),active: 11.9
20,O=C(Nc1cccc(-c2ccc(F)cc2)c1)C1CCCN(C(=O)c2ccoc2)C1 (stereo not given),inactive: 108

row,Compound,intramacrophage bacterial GFP load
1,CCN1CCCC(CN(C)C(=O)c2cc(NC(=O)COC)cc3nc(-c4cccnc4)n(CC)c23)C1 (stereo not given),inactive: 96.4
2,CCn1ccnc1CN1CCCC1C(=O)Nc1ccc(-c2cccc(F)c2)cc1 (stereo not given),active: 7.43
3,c1csc(CNc2nc(CN3CCc4ccccc4C3)nc3ccccc23)c1,inactive: 109
4,CSc1ncc(CN2CCc3c([nH]c4ccccc34)C2c2cccc(O)c2)cn1 (stereo not given),inactive: 103
5,COc1ccc(CC2(CCC(=O)N3CCC(Oc4ccc(F)cc4)CC3)CCC(=O)N2)c(F)c1 (stereo not given),inactive: 70.8
6,CCn1cc(CN2CCC(c3ccc(OC)c(C)c3)Sc3cc(OC)ccc32)c(C)n1 (stereo not given),inactive: 115
7,CCOC(=O)C1(Cc2ccccc2C)CCCN(Cc2ccc(COC)o2)C1 (stereo not given),inactive: 33.1
8,COc1cc(CN2CCOc3ccc(C(C)(O)COc4ccccc4)cc3C2)ccc1F (stereo not given),inactive: 34.6
9,CC(c1ccon1)N(C)C(=O)CC1(c2ccccc2)CC(=O)N(Cc2ccc3c(c2)OCO3)C1=O (stereo not given),inactive: 156
10,CN(C(=O)c1cccs1)C(Cc1ccccc1)C1CCN(C(=O)c2ccc(-n3cccn3)cc2)CC1 (stereo not given),inactive: 119
11,COCCCNc1nc2nonc2nc1NCc1ccc(Cl)s1,inactive: 150
12,CCCN(CC1CC1)C(=O)CC1(c2ccc(-c3ccccc3)cc2)CC(=O)N(C2CC2)C1=O (stereo not given),inactive: 49.3
13,C=CCO[C@H]1[C@H](NC(=O)COC)c2ccccc2C12CCN(C(=O)/C=C/c1cc(F)ccc1F)CC2,inactive: 29.6
14,COCCC(=O)Nc1ccc2c(c1)CN(C(=O)c1cc3c(s1)CCCCC3)CC2,inactive: 131
15,CCN(Cc1ccccc1)C(=O)CC1(c2cccc(C(F)(F)F)c2)CC(=O)N(C2CC2)C1=O (stereo not given),inactive: 91.6
16,O=C(c1cccc(Cl)c1)C1CCCN(C(=O)Nc2ccc3c(c2)OCO3)C1 (stereo not given),inactive: 162
17,Cc1cc(C)n2nc(C(=O)N(Cc3ccncc3)Cc3cccc(OCCc4ccc(F)cc4)c3)cc2n1,inactive: 103
18,CC(=O)N1CCN(C(=O)CC(c2ccccc2)c2cccc(Cl)c2)CC1 (stereo not given),inactive: 83.3
19,CCOC(=O)C1(Cc2cccc(Cl)c2)CCCN(Cc2nccn2CC)C1 (stereo not given),active: 6.09
20,COc1ccc(-n2ncc(C(C)NS(=O)(=O)c3cccc4nsnc34)c2C)cc1 (stereo not given),inactive: 177
